Measurements: the supplement of paper PMC4967469
A lower IC50 marks a more sensitive line; where the fit passes the top or lowest dose, that dose stands as a limit. The AUC spans the tested range (256-fold, ending at the top dose) of the same fit; the more sensitive the line, the further below 1. For some of these results: An inferred top dose was calculated from the reported fits. For some of these results: Where an entry number is given, a second screen of the drug exists; the two often differ.

Key:
Test in all cases: Viability of human cancer cell lines after 72 h of drug (GDSC screen)
[1] = compound: CC(C)[C@H](C(=O)Nc1ccc(C(=O)NO)cc1)c1ccccc1 [AR-42]; conditions: top dose 5.12 µM; top dose inferred
Description: (§1)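 Human cancer cell lines in 384-well plates, medium with 10% serum, drug for 72 h over a 256-fold dose range (nine 2-fold or five 4-fold steps up to the top dose). Adherent lines were fixed and stained with the nucleic acid dye Syto60, suspension lines read with resazurin; signal relative to control wells, capped at 0 and 100%. One two-parameter sigmoid per drug and line, fitted in a mixed model over all curves with the slope shared within a line.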

[2] = compound: C[C@]12O[C@H](C[C@]1(O)CO)n1c3ccccc3c3c4c(c5c6ccccc6n2c5c31)CNC4=O [CEP-701]; conditions: top dose 2 µM; top dose inferred
Description: as §1

[3] = compound: CS(=O)(=O)N1CCN(Cc2cc3nc(-c4cccc5[nH]ncc45)nc(N4CCOCC4)c3s2)CC1 [GDC0941]; conditions: top dose 4 µM; screen: GDSC drug entry 1527; top dose inferred
Description: as §1

[4] = compound: Cc1ccc(Nc2nccc(N(C)c3ccc4c(C)n(C)nc4c3)n2)cc1S(N)(=O)=O [Pazopanib]; conditions: top dose 8 µM
Description: as §1

Row | Cell Line | AUC [1] | IC50 [1] [nM] | AUC [2] | IC50 [2] [nM] | AUC [3] | IC50 [3] [nM] | AUC [4] | IC50 [4] [nM]
1 | LOU-NH91 (lung squamous cell carcinoma, adherent) | 0.668 | 982 | 0.605 | 249 | 0.807 | 2270 | 0.976 | > 8000
2 | MDA-MB-330 (breast, adherent) | 0.516 | 355 | 0.785 | 984 | 0.752 | 1490 | 0.939 | > 8000
3 | MDA-MB-415 (breast, adherent) | 0.931 | > 5120 | 0.873 | > 2000 | 0.733 |  | 0.871 | > 8000
4 | MDA-MB-436 (breast, adherent) | 0.81 | 3600 | 0.799 | 1260 | 0.844 | > 4000 | 0.965 | > 8000
5 | ME-180 (cervix, adherent) | 0.617 | 684 | 0.685 | 423 | 0.648 | 654 | 0.97 | > 8000
6 | MES-SA (uterus, adherent) | 0.914 | > 5120 | 0.816 | 906 | 0.65 | 607 | 0.932 | > 8000
7 | MIA-PaCa-2 (pancreas, adherent) | 0.739 | 1670 | 0.697 | 474 |  |  | 0.768 | 3300
8 | MOG-G-UVW (glioma, adherent) | 0.472 | 270 | 0.488 | 116 | 0.747 | 1250 | 0.854 | 6050
